Data published in a collection of fitness landscapes (doi:10.1016/j.celrep.2020.107928).
In all, about 81,000 sequences were measured (“one-hybrid fitness for binding parS DNA”: median about -0.17, highest 2% from about 0.51 on). Some of the results follow.

B1: Caulobacter ParB omega fusion; a variant is named by its letters at X, in order, B8GW30 (parent)
chain: MESVVVGEPGMSEGRRGLGRGLSALLGEVDAAPAQAPGEQLGGSREAPIEILQRNPDQPRRTFREEDLEDLSNSIREKGVLQPILVRPSPDTAGEYQIVAGERAWRAAQRAGLKTVPIMVRELDDLAVLEIGIIENVQRADLNVLEEALSYKVLMEKFERTQENIAQTIGKSXSHVANXMRLLXLPDEVQSYLVSGELTAXHARAIAAAADPVALAKQIIEGGLSVRETEALARKAPNLSAGKSKGGRPPRVKDTDTQALESDLSSVLGLDVSIDHRGSTGTLTITYATLEQLDDLCNRLTRGI

Variants of: B1
Experiment: one-hybrid fitness for binding parS DNA (scaled: cognate 1, non-cognate 0); higher = stronger binding
Details: with parS DNA site
How it was run: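 On M9-minus-histidine containing 0.1 mM IPTG and 5 mM 3-AT, E. coli USO cells with a HIS3 reporter, site 19 bp from the promoter, grew 48 hours at 37°C to select Caulobacter ParB libraries randomised at four specificity codons. Plasmids from before and after were Illumina-sequenced, with three replicate libraries pooled and variants under 10 reads left out. Fitness is the log change in variant-to-wild-type read ratio, rescaled against cognate and non-cognate.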

Variant	one-hybrid fitness for binding parS DNA
EECG	≤ 0.2
GVMC	≤ 0.2
YFDV	≤ 0.2
RFMF	0.245
RLEF	0.247
VVLT	≤ 0.2
VNKH	≤ 0.2
GANR	≤ 0.2
YFDT	≤ 0.2
DRTY	≤ 0.2
AYNP	≤ 0.2
HGFD	≤ 0.2
QMKL	≤ 0.2
WYNG	≤ 0.2
EAPD	≤ 0.2
ELQS	≤ 0.2
EWPT	≤ 0.2
LLFC	≤ 0.2
WQIG	≤ 0.2
DQQG	≤ 0.2
LPEC	≤ 0.2
THIC	≤ 0.2
DNVM	≤ 0.2
VWEC	≤ 0.2
HGTM	≤ 0.2
RWHT	0.655

Variant	one-hybrid fitness for binding parS DNA
EAFF	≤ 0.2
RHHP	≤ 0.2
GRPD	≤ 0.2
NVAY	≤ 0.2
YRKV	≤ 0.2
PVRV	≤ 0.2
RMHI	≤ 0.2
FPMS	≤ 0.2
LVYV	≤ 0.2
WSSM	≤ 0.2
AWIP	≤ 0.2
YMNC	≤ 0.2
CWSS	≤ 0.2
ISHC	≤ 0.2
SAET	≤ 0.2
DSMR	≤ 0.2
QAPG	≤ 0.2
PFRG	≤ 0.2
HYYY	≤ 0.2
SEGF	≤ 0.2
HNMR	≤ 0.2
LGYG	≤ 0.2
QNYN	≤ 0.2
DVCR	≤ 0.2
RHMD	≤ 0.2
TWTD	≤ 0.2

Variant	one-hybrid fitness for binding parS DNA
HKHH	≤ 0.2
WEQI	≤ 0.2
TRWL	≤ 0.2
SDVE	≤ 0.2
MHHP	≤ 0.2
HLNK	≤ 0.2
PLRS	≤ 0.2
LKMG	≤ 0.2
TVPT	≤ 0.2
RCHP	≤ 0.2
CYYR	≤ 0.2
AFAK	≤ 0.2
HWVL	≤ 0.2
LNSG	≤ 0.2
SEHC	≤ 0.2
CQWG	≤ 0.2
TKHF	≤ 0.2
PSPH	≤ 0.2
ERSV	≤ 0.2
DHDS	≤ 0.2
NPSG	≤ 0.2
LAAM	≤ 0.2
PGNH	≤ 0.2
CGPS	≤ 0.2
SYYG	≤ 0.2
WQRM	≤ 0.2

Variant	one-hybrid fitness for binding parS DNA
QLSF	≤ 0.2
VLYR	≤ 0.2
KSFM	≤ 0.2
FIPE	≤ 0.2
AKLV	≤ 0.2
RDQK	≤ 0.2
NRTE	≤ 0.2
NVDS	≤ 0.2
PTEN	≤ 0.2
GSTF	≤ 0.2
LENS	≤ 0.2
TVMR	≤ 0.2
YRMM	≤ 0.2
PYWT	≤ 0.2
FVYG	≤ 0.2
KLRV	≤ 0.2
MRQG	≤ 0.2
NMER	≤ 0.2
DQYG	≤ 0.2
PSKL	≤ 0.2
ITEV	≤ 0.2
LHRV	≤ 0.2
RANW	0.329
NDNI	≤ 0.2
HYEL	≤ 0.2
PQQW	≤ 0.2

Variant	one-hybrid fitness for binding parS DNA
NWRR	≤ 0.2
LREA	≤ 0.2
FSSD	≤ 0.2
LCQS	≤ 0.2
ASHH	≤ 0.2
QTDI	≤ 0.2
FEPI	≤ 0.2
KQFN	≤ 0.2
WMTV	≤ 0.2
ARLC	≤ 0.2
RTLF	0.267
MRVT	≤ 0.2
RSTL	≤ 0.2
CLPL	≤ 0.2
SPER	≤ 0.2
RCSK	0.216
QWLY	≤ 0.2
LAKY	≤ 0.2
LFVN	≤ 0.2
PGTC	≤ 0.2
YPDR	≤ 0.2
GLTR	≤ 0.2
FFKS	≤ 0.2
QNVS	≤ 0.2
ETLP	≤ 0.2
WVHL	≤ 0.2

Variant	one-hybrid fitness for binding parS DNA
TRCG	≤ 0.2
SVLR	≤ 0.2
IWHG	≤ 0.2
HVNK	≤ 0.2
RGCS	0.595
THTI	≤ 0.2
YKHY	≤ 0.2
QMKN	≤ 0.2
DHSG	≤ 0.2
SWPE	≤ 0.2
SWAS	≤ 0.2
VRAQ	≤ 0.2
PYVG	≤ 0.2
PGRM	≤ 0.2
AHAK	≤ 0.2
MYTC	≤ 0.2
KPLN	≤ 0.2
ACDC	≤ 0.2
SAGN	≤ 0.2
HTGL	≤ 0.2
YIDF	≤ 0.2
NTMH	≤ 0.2
TYLR	≤ 0.2
